Source: the supplement of paper PMC8728848
Shown is part of a subset that was picked to be rich in the strongest signals.

The substances below were run on GlcNAc(a1-3)Gal(b1-4)GlcNAc (assay: glycan array binding signal (z-score within array); higher = stronger binding). Conditions: glycan notation: IUPAC condensed, linker removed.
Method in brief: (§1)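 The binding signal is a Z-score computed within each array and averaged over linkers. Arrays of the same protein sequence at different concentrations or buffers were also averaged together. Data originate from 3228 arrays in the Consortium for Functional Glycomics database, kept only where the protein sequence was available.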
“CLEC-2 (Homo sapiens) (chain not printed)” was tested, and the “glycan array binding signal (z-score)” value was -0.07.
With “L-Ficolin (Homo sapiens) (chain not printed)” the “glycan array binding signal (z-score)” value was 4.17.
With “Siglec-2 (Homo sapiens) (chain not printed)” the “glycan array binding signal (z-score)” value was -0.197.
With “Collectin K1 (Homo sapiens) (chain not printed)” the “glycan array binding signal (z-score)” value was -0.195.

What follows are substances tested on GlcNAc(a1-4)Gal(b1-3)GlcNAc in the same assay as above. Conditions: glycan notation: IUPAC condensed, linker removed.
Method in brief: as §1
With MBP (Homo sapiens) (chain not printed) the “glycan array binding signal (z-score)” value was -0.412.
In the case of “H-Ficolin (Homo sapiens) (chain not printed)”, the “glycan array binding signal (z-score)” value is reported as 1.75.
For “M-Ficolin (Homo sapiens) (chain not printed)”, the “glycan array binding signal (z-score)” value was -0.182.

What follows are substances tested on GlcNAc(a1-4)Gal(b1-4)GalNAc in the same assay as above. Conditions: glycan notation: IUPAC condensed, linker removed.
Method in brief: as §1
With “H-Ficolin (Homo sapiens) (chain not printed)” the “glycan array binding signal (z-score)” value was 5.6.
In the case of “Gal 3 (Homo sapiens) (chain not printed)”, the “glycan array binding signal (z-score)” value is reported as -0.108.
“M-Ficolin G221F (Homo sapiens) (chain not printed)” was tested, and the “glycan array binding signal (z-score)” value was -0.053.
With “M-Ficolin G221F A256V (Homo sapiens) (chain not printed)” the “glycan array binding signal (z-score)” value was -0.008.
